Reference: publication PMC4336329 (PLoS ONE, 2015)
Screen size: about 310,000 compounds; about 14,000 (4.5%) showed an effect of 50% or more. The effect is printed as a negative number. The list shows a part of the results.

target: human ether-à-go-go-related gene (hERG) potassium channel (human, UniProt Q12809); experiment: primary screen, population patch clamp on CHO cells stably expressing hERG
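Further: peak tail current of the secondary pulse compared with the same well before compound.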

Chain of human ether-à-go-go-related gene (hERG) potassium channel (Q12809 whole entry, looked up): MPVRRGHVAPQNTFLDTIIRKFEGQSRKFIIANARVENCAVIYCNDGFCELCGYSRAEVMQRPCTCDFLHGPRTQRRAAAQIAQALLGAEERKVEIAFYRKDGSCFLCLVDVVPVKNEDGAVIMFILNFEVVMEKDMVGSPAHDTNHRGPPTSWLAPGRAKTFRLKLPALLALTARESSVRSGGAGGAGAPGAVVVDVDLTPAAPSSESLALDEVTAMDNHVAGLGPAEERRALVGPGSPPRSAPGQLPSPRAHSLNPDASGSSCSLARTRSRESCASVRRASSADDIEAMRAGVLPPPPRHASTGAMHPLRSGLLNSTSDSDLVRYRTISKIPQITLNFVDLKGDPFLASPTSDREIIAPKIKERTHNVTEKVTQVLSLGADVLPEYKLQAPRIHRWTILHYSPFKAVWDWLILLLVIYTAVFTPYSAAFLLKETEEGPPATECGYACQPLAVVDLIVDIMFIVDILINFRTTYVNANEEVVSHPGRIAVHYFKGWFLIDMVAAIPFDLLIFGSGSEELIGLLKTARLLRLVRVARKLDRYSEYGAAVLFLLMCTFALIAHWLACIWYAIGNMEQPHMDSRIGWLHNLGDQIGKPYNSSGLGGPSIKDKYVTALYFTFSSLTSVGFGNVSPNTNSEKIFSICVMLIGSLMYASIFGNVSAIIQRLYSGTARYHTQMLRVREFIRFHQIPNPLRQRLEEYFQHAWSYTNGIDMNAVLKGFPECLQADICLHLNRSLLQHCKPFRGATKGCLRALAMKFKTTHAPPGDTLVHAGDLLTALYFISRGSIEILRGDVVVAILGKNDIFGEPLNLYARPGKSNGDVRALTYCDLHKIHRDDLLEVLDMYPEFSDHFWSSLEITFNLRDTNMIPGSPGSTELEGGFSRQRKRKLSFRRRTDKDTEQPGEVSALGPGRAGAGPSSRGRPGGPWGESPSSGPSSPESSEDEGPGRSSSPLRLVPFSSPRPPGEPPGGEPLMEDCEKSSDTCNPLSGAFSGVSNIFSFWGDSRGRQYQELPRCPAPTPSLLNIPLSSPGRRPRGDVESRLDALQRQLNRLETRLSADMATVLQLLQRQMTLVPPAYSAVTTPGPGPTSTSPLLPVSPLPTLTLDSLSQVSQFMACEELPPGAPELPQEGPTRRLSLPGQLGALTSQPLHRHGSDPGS

| SMILES | hERG current change (%, negative = inhibition) at 10uM [%] |
| --- | --- |
| COc1ccc(C2C(C(=O)O)c3ccccc3C(=O)N2Cc2ccco2)cc1 (stereo not shown) | 12.2 |
| CCCCNc1nc2c(c(=O)[nH]c(=O)n2C)n1CCOc1ccccc1 | 3.6 |
| O=C(NCc1ccccc1)C(c1ccncc1)N(C(=O)c1ccccn1)c1ccccc1 (stereo not shown) | 7.19 |
| COc1ccc2ccc(O)c(CN3CC=C(c4ccccc4)CC3)c2c1 | 39.4 |
| Br.Cc1ccc(C)c(C2=CSC3=NCCN23)c1 | -14.1 |
| COc1ccc(C(c2nnnn2CS(=O)(=O)c2ccc(C)cc2)N2CCN(c3ncccn3)CC2)cc1 (stereo not shown) | 2.69 |
| Cc1cc(=O)cc(C)n1-c1ccc2c(c1)nc(C)n2-c1ccccc1 | -14.7 |
| CCCNS(=O)(=O)c1ccc(OCC(=O)NCc2ccco2)cc1 | -44.5 |
| COc1ccccc1-n1cnnc1SCC(=O)Nc1cc(C(C)(C)C)nn1-c1ccccc1 | -21 |
| O=C(/C=C/c1ccc(F)cc1)N1CCN(Cc2ccccc2)CC1 | -40.6 |
| CC(=O)Nc1ccc(S(=O)(=O)Nc2nc3ccccc3nc2Cl)cc1 | 15.9 |
| C=CCNc1nc(Cl)nc(Nc2ccc(OCC)cc2)n1 | -4.95 |
| NC(=O)c1ccccc1NC(=O)/C=C/C(=O)O | 16.6 |
| CCCc1cc(=O)oc2cc(Oc3ncccn3)ccc12 | -21.3 |
| COc1ccc(S(=O)(=O)NCc2ccc(C(=O)N3CCc4ccccc4C3)cc2)cc1 | -16.1 |
| Cn1cccc1CNC(=O)Nc1ccc(Cl)cc1 | -24.4 |
| CN(C)S(=O)(=O)c1ccc(C(=O)Nc2cc3c(cc2C(=O)O)OCCCO3)cc1 | 3.73 |
| CC(C)(C)c1cc[n+](/C(C(=S)NC2CC2)=C(/[O-])c2ccc(Cl)s2)cc1 | -36.6 |
| O=C(NCCCO)C(=O)NCc1ccccn1 | 23.3 |
| COc1ccccc1NC(=O)CSc1ccc(-c2ccc(-n3cccn3)cc2)nn1 | 14.5 |
| Cc1onc(-c2c(F)cccc2Cl)c1C(=O)c1ccccc1O | -0.367 |
| CC(=O)N(Cc1ccccc1)Cc1nc2sc(C)c(C)c2c(=O)[nH]1 | 12.5 |

| SMILES | hERG current change (%, negative = inhibition) at 10uM [%] |
| --- | --- |
| CCOC(=O)c1c(NC(=O)Cn2nc(C(=O)O)c3ccccc3c2=O)sc2c1CCC(C)C2 (stereo not shown) | 9.53 |
| Cc1no[n+]([O-])c1COc1ccc(/C=C2\NC(=S)NC2=O)cc1 | -3.66 |
| COc1ccccc1NC(=O)Cn1cnc2c(cnn2-c2ccccc2)c1=O | 6.91 |
| Cc1cc(NC(=O)c2c([N+](=O)[O-])cnn2C)no1 | 14.2 |
| O=C(CN1C(=O)c2ccccc2S1(=O)=O)Nc1ccc(S(=O)(=O)N2CCCC2)cc1 | -16.5 |
| Cn1c2c(c(=O)n(C)c1=O)C(NS(=O)(=O)c1ccccc1)(C(F)(F)F)C(=O)N2 (stereo not shown) | 16.5 |
| CCOC(=O)c1cn[nH]c1N | 11 |
| CC1CCCC/C1=N\NS(=O)(=O)c1ccc(Br)cc1 (stereo not shown) | 0.0516 |
| CC(=O)c1cc2c(cc1NS(=O)(=O)c1cccc(C(=O)O)c1)OCO2 | 12 |
| CCc1cccc2c(C(=O)Cn3nnc(-c4ccc(OC)c(OC)c4)n3)c[nH]c12 | 3.71 |
| CCC(C)c1ccccc1N1CC(C(=O)NCCc2ccc(OC)c(OC)c2)CC1=O (stereo not shown) | 6.41 |
| CC1=C(C(=O)NC2CCC(C)CC2)C2(CCC(C)CC2)OC1=O (stereo not shown) | 7.63 |
| COc1ccc(CCNC(=O)C2CC(=O)N(c3ccc(C)cc3)C2)cc1OC (stereo not shown) | -8.21 |
| Cc1ccc(C)c(N2CCN(C(=O)c3ccc(Cn4c(=O)[nH]c5ccccc5c4=O)cc3)CC2)c1 | 14.3 |
| CN(C)S(=O)(=O)c1cccc(NC(=O)COc2ccc(C(=O)c3ccccc3)cc2)c1 | -24.6 |
| COc1ncccc1C(=O)NCC(CC(=O)O)c1ccccc1 (stereo not shown) | -9.34 |
| CC(=O)c1cccc(NC(=O)c2cnn3ccccc23)c1 | 5.22 |
| Cc1cc(C)c2c(-n3cccc3)n[nH]c2n1 | 6.04 |
| C#CC[N+]1(C)C2CCC1CC(O)C2.[Br-] (stereo not shown) | 8.56 |
| COc1ccc(CCC(=O)Nc2cc([N+](=O)[O-])ccc2OC)cc1 | 6.96 |
| Cc1cc(C)cc(Oc2ccc(NC(=O)C3CC=CCC3C(=O)O)cc2)c1 (stereo not shown) | 42.8 |
